Assay results reported in ChEMBL document CHEMBL4888484, “Replenishing the malaria drug discovery pipeline: Screening and hit evaluation of the MMV Hit Generation Library 1 (HGL1) against asexual blood stage Plasmodium falciparum ,using a nano luciferase reporter read-out” (2022).
Screen size: about 150,000 compounds; about 540 (0.36%) showed an effect of 50% or more. This is one part of the list.

system: Plasmodium falciparum; assay: Primary screen in NF54 nanoGlo assay, in single point, at 2uM, 72h; a lower Z score goes with more inhibition; format: functional, Erythrocyte; settings: timepoint 72 hour

SMILES	% Inhibition [%]	Z score
CN(Cc1ccccc1)c1ncnc2c(-c3ccc(F)cc3)nsc12	1	-0.14
CCn1cncc1-c1c(-c2ccccc2)ncn1Cc1ccc(CO)cc1	-5	1.04
CCn1cnc2cc(NCc3nc4ccccc4n3Cc3ccccc3)ccc21	-18	2.03
Cc1ccc(C[C@@H](CNC(=O)c2cnsn2)C(=O)O)cc1	6	-1.05
O=C(Nc1nnn[nH]1)C1CC1c1ccc(Cl)cc1Cl (stereo not drawn)	-4	0.43
Cc1cccc(F)c1NC(=O)NC1CCN(C[C@H]2CCOC2)CC1	-4	0.42
Cn1c(=O)c2c(ncn2CC(=O)N2CCN(c3ccc(F)cc3)CC2)n(C)c1=O	3	-0.56
Cc1cc(C(=O)N[C@@]2(C)CCS(=O)(=O)C2)nc(C)n1	-8	1.16
Cc1nc(N[C@H]2CCC[C@H]2C(=O)O)cc(C(F)(F)F)n1	1	-0.26
O=C(CCC(F)(F)F)Nc1cnccn1	3	-0.31
CCO[C@@H](C)c1ccc(-c2cc(C)c(C)nc2O)cc1	-12	1.7
COc1ccc(-c2cnn(C(F)F)c2C)c(OC)n1	6	-0.88
CC(C)(CN)c1ccc(-c2cccc3c2CNC3=O)cc1	-16	1.74
COC(=O)C[C@H](c1ccc(O)cc1)c1c(O)n[nH]c1Cc1ccc(OC(F)(F)F)cc1	-18	1.97
NC(=O)CC[C@@H]1N[C@]2(C(=O)Nc3ccccc32)[C@@H]2C(=O)N(c3ccc4ccccc4c3)C(=O)[C@H]12	6	-0.74
COc1ccc(Cc2nnc(C(=O)NC3CCCCC3)o2)cc1OC	-6	0.89
CCNc1nc(C(=O)NC[C@H]2CCCN2CCOC)cs1	-10	1.34
Cc1nn(C)c(C)c1C[C@H](C)C(=O)NCCCN(C)c1ccccc1	-9	1.12
CN(Cc1nccn1C)C(=O)c1cc(-c2ccc3c(c2)CCO3)no1	1	-0.14
CC(=O)N1CC(C(=O)Nc2cc(Cl)ccc2C#N)C1	-10	1.79
COc1ccc(-c2cc3n(n2)C(=O)c2ccccc2-3)cc1	-10	1.31
COCCN1CCC(CNC(=O)c2cc(-c3cc(OC)ccc3OC)nn2C)CC1	-1	0.06
OCC1(F)CCCN(C2C=CCCC2)C1 (stereo not drawn)	-15	2.14
Cc1noc(CCNC(=O)CN2C(=O)c3ccccc3N3C(=O)c4ccccc4[C@H]23)n1	5	-0.62
C[C@](O)(CNC(=O)COCc1nc(-c2ccccc2)no1)C1CC1	-16	2.11
CCOc1ccc(CNc2cccc3c2OCC[C@@H]3O)cc1F	2	-0.45
O=C1CO[C@@H](CNS(=O)(=O)Cc2ccccc2)CN1Cc1ccccc1	-2	0.3

SMILES	% Inhibition [%]	Z score
CCn1nc(C(=O)N[C@H]2CCCc3ccccc32)cc1-c1ccsc1	-14	2.58
CC(C)Cc1cc(CNCc2ccc(-c3cc[nH]n3)s2)on1	-7	0.84
O=C(Cc1ccncc1)N1CCC[C@@]2(C=Cc3ccccc3O2)CC1	2	-0.33
COCc1nc(C2(CC3CC3)CCN(C(=O)Cc3ccc(C)cc3)CC2)no1	-4	0.5
COCCN(Cc1ccoc1)S(=O)(=O)CCc1ccccc1	-6	0.71
COc1ccc(-n2nc3ccc(NC(=O)c4nc[nH]n4)cc3n2)cc1Cl	-20	2.49
O=c1ccc(C(F)(F)F)nn1Cc1ccn(-c2ccccc2)n1	-16	2.63
CCC1CN(Cc2nnsc2Cl)CCN1CC(C)O (stereo not drawn)	-7	0.83
O=C(NCCn1ccnc1-c1cnccn1)OCc1ccccc1	-4	0.8
CCOC(=O)[C@@H](C#N)C1(C#N)CCCC1	-2	0.34
O=C(COc1cccc(Br)c1)Nc1ccc2c(c1)CCC2	4	-0.73
Cc1ccc(N2CCC[C@]3(CCCN(Cc4ccccc4)C3)C2)nn1	-10	1.12
Cc1ccc(C)c(C(=O)Nc2cccc(-c3nnc4n3CCCC4)c2)c1	-40	3.63
Cc1cc(C)n(-c2nc3c(c(=O)n2CC(=O)N2CCCC2)CCC3)n1	4	-0.5
CCNc1ccc(Br)cc1NC(=O)[C@H](C)OC	-16	2.26
COc1cc2c3cc1Oc1cc(ccc1O)C[C@@H]1c4c(cc(OC)c(O)c4Oc4ccc(cc4)C[C@@H]3[N+](C)(C)CC2)CC[N+]1(C)C	-3	0.25
CCN(C(=O)c1cccn1C1CCCC1)[C@@H](C)CS(C)(=O)=O	-6	0.86
O=C(CN1CCCC[C@H]1c1cc2ccccc2[nH]1)NCC(F)(F)F	0	0.01
CCOC(=O)N1CCC2(O)CCCCC2[C@@H]1c1ccccc1OC (stereo partly drawn)	2	-0.22
CC[C@](C)(NS(=O)(=O)c1ccc(-n2cc(C)cn2)c(F)c1)c1nccs1	-1	0.16
CCc1nnc(CN(C)C2CCCCC2C)s1 (stereo not drawn)	-16	2.31
NCc1nc(N2CCCC2)c2cc(Cl)ccc2n1	-6	0.72
O=C(c1ccc(-c2ccc(O)cn2)cc1)N1CCCN2CCC[C@H]2C1	-6	1.12
COc1ccc(-c2nn(-c3ccc(C(F)(F)F)cc3)c(N)c2NC(=O)NCC2CCCCC2)cc1	2	-0.35
Cc1ccc(NC(=O)NC(=O)Cn2c(-c3ccccn3)n[nH]c2=O)cc1C	3	-0.34
COCc1nc(N2CC[C@H](O)C2)c2c(-c3ccccc3)csc2n1	-4	0.42
COc1ccc(NC(=O)c2sc(-n3nc(C)cc3C)nc2C)c(OC)c1	-11	0.96
